Data: patent publication US20150087619A1, “METHOD OF MITIGATING VIRUS ASSOCIATED END-ORGAN DAMAGE” (CHIMERIX, INC., priority 2012, published 2015)

Assay: Pharmacokinetic analysis in pediatric and geriatric patients
Assay type: in vivo, human
Settings: pediatric patients aged 4-16 years; approx. 1-4 mg/kg once or twice weekly
Protocol: This study population included five children. Pediatric patients received approximate doses of 1, 2, 3, or 4 mg/kg given once or twice weekly. […] Variability in PK parameters for this age group was high with respect to AUC, Cmax, and CL/F. In general, pediatric patients had lower plasma concentrations of HDP-CDV and CDV than adult healthy volunteers or patients on the same dose and schedule.
The study population also included 3 elderly adults. Geriatric patients received approximate doses of 1, 2, or 3 mg/kg given either once or twice weekly. Similar to pediatric patients, the medical condition of geriatric patients varied widely. Variability in PK parameters for this age group was high with respect to AUC, Cmax, and CL/F. In general, geriatric patients had higher plasma concentrations of HDP-CDV and CDV and lower CL/F than those observed in younger healthy volunteers or patients.
High CDV CL/fm values were also observed in children.

## CCCCCCCCCCCCCCCCOCCCOP(=O)(O)COC(CO)Cn1ccc(N)nc1=O (stereo not shown) [HDP-CDV]
  plasma concentrations of HDP-CDV and CDV vs adult healthy volunteers or patients: lower
